Target: T1, human NPRA (hNPRA) (Homo sapiens, UniProt P16066)
T1 construct: expressed in transfected cells
T1 sequence (P16066 33-1061): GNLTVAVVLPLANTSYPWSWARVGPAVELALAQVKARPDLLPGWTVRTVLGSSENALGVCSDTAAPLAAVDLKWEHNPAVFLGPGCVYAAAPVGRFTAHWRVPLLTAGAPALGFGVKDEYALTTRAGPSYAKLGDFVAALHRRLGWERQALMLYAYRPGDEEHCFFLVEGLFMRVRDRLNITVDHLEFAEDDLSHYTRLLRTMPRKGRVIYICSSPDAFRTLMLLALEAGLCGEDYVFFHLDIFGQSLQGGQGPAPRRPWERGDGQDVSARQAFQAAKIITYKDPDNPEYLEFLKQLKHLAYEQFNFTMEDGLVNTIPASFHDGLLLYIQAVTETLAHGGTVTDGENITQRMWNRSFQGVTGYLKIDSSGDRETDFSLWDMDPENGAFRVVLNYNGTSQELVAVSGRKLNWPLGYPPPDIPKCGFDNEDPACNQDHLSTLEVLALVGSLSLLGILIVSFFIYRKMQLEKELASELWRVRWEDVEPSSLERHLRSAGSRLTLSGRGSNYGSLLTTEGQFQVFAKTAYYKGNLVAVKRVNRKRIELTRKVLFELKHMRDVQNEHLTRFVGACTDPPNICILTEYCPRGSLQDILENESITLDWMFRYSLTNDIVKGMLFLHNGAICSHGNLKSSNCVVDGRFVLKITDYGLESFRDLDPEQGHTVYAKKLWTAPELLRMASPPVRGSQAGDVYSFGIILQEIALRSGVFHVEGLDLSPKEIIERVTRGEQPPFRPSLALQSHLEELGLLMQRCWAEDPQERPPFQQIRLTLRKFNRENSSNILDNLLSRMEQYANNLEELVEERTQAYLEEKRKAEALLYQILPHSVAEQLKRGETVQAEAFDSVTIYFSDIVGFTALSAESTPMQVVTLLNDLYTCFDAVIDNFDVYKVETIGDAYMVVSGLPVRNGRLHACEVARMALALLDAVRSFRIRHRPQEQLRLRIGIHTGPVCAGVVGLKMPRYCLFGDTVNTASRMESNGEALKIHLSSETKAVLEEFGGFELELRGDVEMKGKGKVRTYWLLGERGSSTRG
Experiment: cGMP quantification (HTRF) on stable hNPRA-CHO k1 cells (res, ics, pcs samples)
Type: cell-based
Method: All activities shown in Tables 7 and 8 were measured on cells with heterologous over expression of human NPRA (hNPRA) by use of a cGMP quantification assay conducted according to manufacturer's instructions (cisbio; 62GM2PEH). In brief, the assay quantifies cGMP in buffered solution or cell-culture supernatants based on the competition between cGMP produced by the cell as result of the NPRA stimulation through the (natriuretic peptide) sample and d2 labelled cGMP for binding to a Cryptate labelled antibody. Sample cGMP and d2 labeled cGMP compete for binding to a limited number of sites on Cryptate labeled anti-cGMP antibodies, and consequently, HTRF® specific fluorescent signal (i.e. energy transfer) is inversely proportional to the concentration of cGMP in the sample.
Dose-response curve data were analyzed with GraphPad Prism (version 7.00 for Windows, GraphPad Software, La Jolla California USA) and EC50 were fitted according to Y=Bottom+(Top−Bottom)/(1+10^((Log EC50−X)*HillSlope)) applying constraints for bottom, top and slope (shared value for all data sets of the respective experiment).
The raw compound sample activity on stable hNPRA-CHO k1 cells was first assessed by comparison to the negative control TPP-5657 and to a positive sample, in particular TPP-5661. Controls and res were tested in quadruplets in two concentrations with a relative dilution factor of 5 aiming for a fluorescent signal (s) in the dynamic range of the assay. […] Values listed in Table 7, columns “activity res” and “stdev activity res”, represent the average of the results for the two concentrations and the respective standard deviation. Res signals less than half of the signal of the reference compound TPP-5661 (36%) were assessed as not active (n.a.).
The activity of several raw compound samples on stable hNPRA-CHO k1 cells was reassessed by comparison to reference sample TPP-5661 in 2.5-fold dilution series (8 concentrations) starting with a 5-fold dilution. The “log EC50” fit value as activity measure of the res was set in relation to the corresponding value of the reference res TPP-5661 by calculating the delta “log EC50” _compound−“log EC50” _TPP-5661; resulting values are listed in Table 7, column “rel. activity res”. […] All samples were applied in quadruplets.
The activity of isolated compound samples on stable hNPRA-CHO k1 cells was assessed by EC50 determination and comparison to reference sample TPP-5661. Samples were tested in 2.5-fold dilution series from 80 nM to 0.13 nM. The log EC50 fit value as activity measure of the ics was set in relation to the corresponding value of the reference ics TPP-5661 (−8.8) by calculating the delta log EC50_compound−log EC50_TPP-5661; resulting values are listed in Table 7, column “rel. log EC50 ics”. All samples were applied in quadruplets.
The activity of purified compound samples on stable hNPRA-CHO k1 cells was assessed in multiple experiments by EC50 determination and comparison to reference sample TPP-5661. Samples were tested in dilution series at least in quadruplets. […] The log EC50 fit value as activity measure of the pcs was set in relation to the corresponding value of the reference TPP-5661 in the respective experiment (in average −9.2, standard deviation 0.5) by calculating the delta log EC50_compound−log EC50_TPP-5661.
Compounds showing an activity in res without confirmation as ics or pcs are marked with an unified “y”, and compounds assessed as not active (“n.a.” in column “activity res”) probably due to their very low expression level (≤1 μg/ml, “n.e.” in column “μg/ml res”) are marked accordingly.

B1: TPP-5657: empty antibody scaffold, negative control; SEQ ID NO 65 and SEQ ID NO 66 (antibody, listed as Homo sapiens)
heavy: [here about 100 residues without letters]LTGAEYFQHWGQGTLVTVSS[here human IgG1 constant region without letters]
light: QSVLTQPPSVSGAPGQRVTISCTGSSSNIGAGYDVHWYQQLPGTAPKLLIYGNSNRPSGVPDRFSGSKSGTSASLAITGLQAEDEADYYCQSYDSSLSGVVFGGGTKLTVLGQPKAAPSVTLFPPSSEELQANKATLVCLISDFYPGAVTVAWKADSSPVKAGVETTTPSKQSNNKYAASSYLSLTPEQWKSHRSYSCQVTHEGSTVEKTVAPTECS
qualit. activity on hNPRA (BNP engrafted constructs, purified compound samples, stable hNPRA-CHO k1 cells): − (EC50 values>50-fold of the reference compound TPP-5661, meaning average rel. log EC50>1.7, were qualitatively assessed as not active) | qualit. activity (summarized qualitative assessment relative to TPP-5661): − (EC50 values>50-fold of the reference compound TPP-5661, meaning average rel. log EC50>1.7, were qualitatively assessed as not active) | qualit. activity of corresp. ANP cpd. (value of the ANP engrafted construct with same integration locus and N-/C-terminal sequence (named in Table 5)): − (EC50 values>50-fold of the reference compound TPP-5661, meaning average rel. log EC50>1.7, were qualitatively assessed as not active)

— patent US12331094B2 (Bayer Aktiengesellschaft, priority 2018, dated 2025)
